Source: PMC12136788
The list shows a part of the results.

B1: chr10:62048396:62048397:-_ENSMUSG00000020075_ENSMUST00000045866|mus_mus|FALSE|FALSE (ssRNA)
RNA: GGGAGUUCUACAGUCCGACGAUCGGCCUCUACAGCUCCCUUCUCCUCAAUCAGCUUCUCAGCUGACUGCUUGAAAUGGCUAAUGGCAGUGGGAGGCACAGAAUCCAAGAGCCUGAUGGCGUCUUUGCUGGAGGCUUUUAUUAUCAACAGAGGAUUGAGCAUCA
B2: chr7:141441981:141441982:+_ENSG00000106028_ENST00000265304|hu_hu|motif|central (ssRNA)
RNA: GGGAGUUCUACAGUCCGACGAUCCUCAUGUCUUACAAACUGACGAAGUACCUGUAAUACAGGUCUUCGAAACAUGGCUUCGGUUUUCUUUUCUUACAGUCUAAUCUUUAGGCUUUUCCUGACGAUCUAACCCGAGCAGCCCAGCAACAGAGGAUUGAGCAUCA
B3: chr4:115894766:115894767:+_ENSMUSG00000028698_ENSMUST00000030464|mus_hu|mus_mus_mus_hu_True|78_78 (ssRNA)
RNA: GGGAGUUCUACAGUCCGACGAUCUUCCACACGGAAAUGUACUUCGGGUUUUCCAACGCCAGUACAAAGUCCGGCCAAACUACCCGAACAGGGUCCUCCCCCUCUCUCCUACAGAACACAACAAAAUGCCCCCGAACUUUCAAGCAACAGAGGAUUGAGCAUCA
B4: chr17:64631184:64631185:-_ENSMUSG00000024083_ENSMUST00000172818|mus_hu|FALSE|FALSE (ssRNA)
RNA: GGGAGUUCUACAGUCCGACGAUCUGGCUUAUUAUAGAGAAAUCUUUAGCAACGUAAGUUUAACCAGUAAGUGUCACAACUGAUCAACAGUACUUAAAAGGAAACAAACAAAAAUCACACUAGCCACAAAUUUCCACCAUAUACCAACAGAGGAUUGAGCAUCA
B5: chr4:76721835:76721836:+_ENSG00000138768_ENST00000264904|hu_mus|motif|central (ssRNA)
RNA: GGGAGUUCUACAGUCCGACGAUCGUUUGGCUGGGGUUUCUGAGACGCUCUGGAAUAUAACUCAUGUUUGCUAAUAAAUCCGGGUUUCUCUAUGAAAUUCUCUUUGCCAAUCCUCUUCUCUAUUAGUUGCUUUAGUUUCUCUUUCAACAGAGGAUUGAGCAUCA
B6: chr10:76732271:76732272:+_ENSMUSG00000020260_ENSMUST00000020493|mus_mus|FALSE|FALSE (ssRNA)
RNA: GGGAGUUCUACAGUCCGACGAUCACUGCAGCUUUCUUGAAAAAGUAUUUUAUUAAUACGCUUGGAUGUACAAAUGGAAAAUAAAUAUGUGAUUCUAGCUGGUCAGCUGACUGGGCCACGGGGCCCUGUCUGUGCUCAGAGUCUCAACAGAGGAUUGAGCAUCA
B7: chr1:150192712:150192713:-_ENSG00000143401_ENST00000314136|hu_mus|motif|central (ssRNA)
RNA: GGGAGUUCUACAGUCCGACGAUCGCACCAAACUACACCUGUGUAAAAGCAACAAUGUUUUAAUUAUGGGCUAAAAAUGUCGGAUACAUUAAGCAUGAAUUAUAAAAAUCCAGAAUCUAAAUACAGUGCUAGAGAAUUUCACUACAACAGAGGAUUGAGCAUCA
B8: chr6:40197388:40197389:+_ENSMUSG00000057716_ENSMUST00000061740|mus_mus|mus_mus_mus_hu_False|28_38 (ssRNA)
RNA: GGGAGUUCUACAGUCCGACGAUCGAGACACUGGGGUGGAUUUAUUCCACCUCUGUUUGGGUGCUAGCCACUAAGACUGUUAUUUUGGGAUUCAUGGCCUUGAAGAUCAAGAGGAAAAGGAAGAGGAUGGAAAGAGUCAAGAGUCAACAGAGGAUUGAGCAUCA
B9: chr5:128448638:128448639:+_ENSG00000066583_ENST00000173527|hu_mus|hu_hu_hu_mus_False|8_48 (ssRNA)
RNA: GGGAGUUCUACAGUCCGACGAUCGGCACUCGCCUUAAUUAGGUUCUGAAUUUCCUUGAACUUCGGGUGGUCUUUGUCAGCCACCAGCUGAAGCAGAACAGCCUCACUAGUGGUCACGAUGAUCCCAGUUCGAGCGAGACGCUCCAACAGAGGAUUGAGCAUCA
B10: chr11:69650846:69650847:-_ENSMUSG00000051790_ENSMUST00000108634|mus_mus|FALSE|FALSE (ssRNA)
RNA: GGGAGUUCUACAGUCCGACGAUCGAACCCCGCAGUGGGAAAGGCUGAGCCAGGAGGGAGCAAUGGGACAGGACUAGAUUGGAGAUCCACUGGUUCUCUGGGAUGGCUUCGAGGGACCAGGAGGCGGUUCAGGCGACAGAUCCUCAACAGAGGAUUGAGCAUCA
B11: chr22:19452774:19452775:-_ENSG00000070010_ENST00000399523|hu_hu|hu_hu_hu_mus_False|8_38 (ssRNA)
RNA: GGGAGUUCUACAGUCCGACGAUCCUUCUCAUUGUAGUUGAUAGCAAUCACAUCUCCAGUCGUCAGACAGGCGAAGUUUCUCAAUGCAUUUUCUAAUACGGCUUUGGGGUUGGUAAUAUCCAGGAAGUCAGGGCUCUGAGGCUGCAACAGAGGAUUGAGCAUCA
B12: chr17:56552419:56552420:-_ENSMUSG00000013236_ENSMUST00000086828|mus_mus|mus_mus_mus_hu_False|28_108 (ssRNA)
RNA: GGGAGUUCUACAGUCCGACGAUCAAAGUUUUUUUCUUUUAAAAAAAAUGAAAUGUCACGGGAUACAGUUACACUGAGAGUUUUAAAAGAAAGCUGGAUUCUGGUCCUUGCCAAAAGUCCCCAGGCUGCAGAGCGGGGAGGAGCCAACAGAGGAUUGAGCAUCA
B13: chr19:8913615:8913616:-_ENSMUSG00000071658_ENSMUST00000096259|mus_hu|mus_mus_mus_hu_False|48_58 (ssRNA)
RNA: GGGAGUUCUACAGUCCGACGAUCAGGGUACCAAAACCUUCUGCCUGAAAUGGGUGCCCCACCCAGUAGGGAGUUGCAGCUAAAAAUAUCCGUAGCAGAAGCAGUGACUAUACGAAAGGAGGCCCCUGGGGAGGGCCAGGCCAGCAACAGAGGAUUGAGCAUCA
B14: 57150429_57150635_147_5pUTR_ENSMUSG00000002658_ENSMUST00000002733|mouse|control|control (ssRNA)
RNA: GGGAGUUCUACAGUCCGACGAUCUCUGGCUGCUGGAGCCUAGAGCCGCCAUGGCCGUUGCUCAAGCUGCUCCCGGUCGGCCUGACGGGAUGAACUUCGUUGUGUCCCUCGGCUCCAGGAAAGGGAAGGCACCUUUCCUGGUUGCAACAGAGGAUUGAGCAUCA

Each binder was assayed against T1, UNK ZnF1-3 (human, UniProt Q9C0B0 31-174) (assay: nsRBNS (natural sequence RNA bind-n-seq); RBNS binding buffer (assumed for nsRBNS): 25 mM Tris pH 7.5, 150 mM KCl, 3 mM MgCl2, 0.01% Triton X-100, 500 ug/ml BSA, 20 U/ml SUPERase-In, 4 C; UNK is unkempt and MSI1 is Musashi-1; names of the RNAs are library labels; protein concentration not given here; high values mean tight binding).
T1 sequence: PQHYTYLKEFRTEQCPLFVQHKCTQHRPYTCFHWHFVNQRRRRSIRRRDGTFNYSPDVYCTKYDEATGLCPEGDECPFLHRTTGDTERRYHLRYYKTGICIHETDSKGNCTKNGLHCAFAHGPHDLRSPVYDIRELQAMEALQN

| Binder | binding signal |
| --- | --- |
| B1 | 0.665 enrichment R |
| B2 | 0.799 enrichment R |
| B3 | 0.862 enrichment R |
| B4 | 1.42 enrichment R |
| B5 | 0.338 enrichment R |
| B6 | 0.929 enrichment R |
| B7 | 1.5 enrichment R |
| B8 | 1.41 enrichment R |
| B9 | 0.598 enrichment R |
| B10 | 2.79 enrichment R |
| B11 | 0.941 enrichment R |
| B12 | 1.4 enrichment R |
| B13 | 1.53 enrichment R |
| B14 | 0.367 enrichment R |
